B1: anti-CD40 Fab-body (antibody, human IgG1, kappa)
light: DIQMTQSPSSVSASVGDRVTITCRASQGIYSWLAWYQQKPGKAPNLLIYTASTLQSGVPSRFSGSGSGTDFTLTISSLQPEDFATYYCQQANIFPLTFGGGTKVEIKRTVAAPSVFIFPPSDEQLKSGTASVVCLLNNFYPREAKVQWKVDNALQSGNSQESVTEQDSKDSTYSLSSTLTLSKADYEKHKVYACEVTHQGLSSPVTKSFNRGECGGSGG[human IgG1 Fc with changes omitted here]
heavy: [about 100 residues omitted here][about 120 residues omitted here][human IgG1 Fc with changes omitted here]
notes: Monovalent Fab-Fc heterodimer (LFc and HFc chains); signal peptides left out
B2: DB001 Fab-body (bispecific antibody, human IgG1, kappa)
light: DIQMTQSPSSMSVSVGDRVTITCHSSQDINSNIGWLQQKPGKSFKGLIYHGTNLDDGVPSRFSGSGSGTDYTLTISSLQPEDFATYYCVQYAQFPWTFGGGTKLEIKTVAAPSVFIFPPDAQVTQSPSSLSASVGDRVTITCRSSTGAVTTSNYANWVQEKPGKLFKGLIGGTNKRAPGVPSRFSGSGSGTDATLTISSLQPEDFATYFCALWYSNLWVFGGGTKVEIKRTVAAPSVFIFPPSDEQLKSGTASVVCLLNNFYPREAKVQWKVDNALQSGNSQESVTEQDSKDSTYSLSSTLTLSKADYEKHKVYACEVTHQGLSSPVTKSFNRGECGGSGG[human IgG1 Fc with changes omitted here]
heavy: QVQLQESGPGLVKPSQTLSLTCTVSGYSISSDFAWNWIRQPPGKGLEWMGYISYSGNTRYQPSLKSRITISRDTSKNQFFLKLNSVTAADTATYYCVTAGRGFPYWGQGTLVTVSSASTKGPEVQLVESGGGLVQPGGSLRLSCAASGFTFSTYAMNWVRQAPGKGLEWVGRIRSKYNNYATYYADSVKDRFTISRDDSKNTAYLQMNSLRAEDTAVYYCTRHGNFGNSYVSWFAYWGQGTLVTVSSASTKGPSVFPLAPSSKSTSGGTAALGCLVKDYFPEPVTVSWNSGALTSGVHTFPAVLQSSGLYSLSSVVTVPSSSLGTQTYICNVNHKPSNTKVDKKV[human IgG1 Fc with changes omitted here]
notes: LFc and HFc chains; signal peptides left out

Assays:
[1] = target: T1, CD40 on CD40-overexpressing HEK 293 cells (UniProt P25942 21-277, limits assumed); experiment: flow cytometry on CD40-overexpressing HEK 293 cells, as in Example 4
T1 construct: whole, on cells
T1 sequence (P25942 21-277 limits assumed): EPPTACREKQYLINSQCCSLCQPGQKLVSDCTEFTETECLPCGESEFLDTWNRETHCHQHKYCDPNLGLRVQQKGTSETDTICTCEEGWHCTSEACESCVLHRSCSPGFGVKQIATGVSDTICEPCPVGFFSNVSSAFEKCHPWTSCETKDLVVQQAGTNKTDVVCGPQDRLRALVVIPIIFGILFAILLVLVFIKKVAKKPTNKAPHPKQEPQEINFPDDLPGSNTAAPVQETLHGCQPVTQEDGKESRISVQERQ

CD3 on Jurkat cells = target: T2, CD3 on Jurkat cells (UniProt P07766); experiment: flow cytometry on Jurkat cells, Alexa Fluor 488 anti-human IgG Fc
T2 construct: whole, on cells; CD3 is a multi-chain complex; also called CD3 antigen

Row | Binder | EC50 [1] [µg/mL] | EC50 (CD3 on Jurkat cells) [nM]
1 | B1 | 0.47 | –
2 | B2 | – | 80
